B1: Angiopoietin-1 receptor (Homo sapiens), Q02763 (parent)
chain: MDSLASLVLCGVSLLLSGTVEGAMDLILINSLPLVSDAETSLTCIASGWRPHEPITIGRDFEALMNQHQDPLEVTQDVTREWAKKVVWKREKASKINGAYFCEGRVRGEAIRIRTMKMRQQASFLPATLTMTVDKGDNVNISFKKVLIKEEDAVIYKNGSFIHSVPRHEVPDILEVHLPHAQPQDAGVYSARYIGGNLFTSAFTRLIVRRCEAQKWGPECNHLCTACMNNGVCHEDTGECICPPGFMGRTCEKACELHTFGRTCKERCSGQEGCKSYVFCLPDPYGCSCATGWKGLQCNEACHPGFYGPDCKLRCSCNNGEMCDRFQGCLCSPGWQGLQCEREGIQRMTPKIVDLPDHIEVNSGKFNPICKASGWPLPTNEEMTLVKPDGTVLHPKDFNHTDHFSVAIFTIHRILPPDSGVWVCSVNTVAGMVEKPFNISVKVLPKPLNAPNVIDTGHNFAVINISSEPYFGDGPIKSKKLLYKPVNHYEAWQHIQVTNEIVTLNYLEPRTEYELCVQLVRRGEGGEGHPGPVRRFTTASIGLPPPRGLNLLPKSQTTLNLTWQPIFPSSEDDFYVEVERRSVQKSDQQNIKVPGNLTSVLLNNLHPREQYVVRARVNTKAQGEWSEDLTAWTLSDILPPQPENIKISNITHSSAVISWTILDGYSISSITIRYKVQGKNEDQHVDVKIKNATITQYQLKGLEPETAYQVDIFAENNIGSSNPAFSHELVTLPESQAPADLGGGKMLLIAILGSAGMTCLTVLLAFLIILQLKRANVQRRMAQAFQNVREEPAVQFNSGTLALNRKVKNNPDPTIYPVLDWNDIKFQDVIGEGNFGQVLKARIKKDGLRMDAAIKRMKEYASKDDHRDFAGELEVLCKLGHHPNIINLLGACEHRGYLYLAIEYAPHGNLLDFLRKSRVLETDPAFAIANSTASTLSSQQLLHFAADVARGMDYLSQKQFIHRDLAARNILVGENYVAKIADFGLSRGQEVYVKKTMGRLPVRWMAIESLNYSVYTTNSDVWSYGVLLWEIVSLGGTPYCGMTCAELYEKLPQGYRLEKPLNCDDEVYDLMRQCWREKPYERPSFAQILVSLNRMLEERKTYVNTTLYEKFTYAGIDCSAEEAA
partner: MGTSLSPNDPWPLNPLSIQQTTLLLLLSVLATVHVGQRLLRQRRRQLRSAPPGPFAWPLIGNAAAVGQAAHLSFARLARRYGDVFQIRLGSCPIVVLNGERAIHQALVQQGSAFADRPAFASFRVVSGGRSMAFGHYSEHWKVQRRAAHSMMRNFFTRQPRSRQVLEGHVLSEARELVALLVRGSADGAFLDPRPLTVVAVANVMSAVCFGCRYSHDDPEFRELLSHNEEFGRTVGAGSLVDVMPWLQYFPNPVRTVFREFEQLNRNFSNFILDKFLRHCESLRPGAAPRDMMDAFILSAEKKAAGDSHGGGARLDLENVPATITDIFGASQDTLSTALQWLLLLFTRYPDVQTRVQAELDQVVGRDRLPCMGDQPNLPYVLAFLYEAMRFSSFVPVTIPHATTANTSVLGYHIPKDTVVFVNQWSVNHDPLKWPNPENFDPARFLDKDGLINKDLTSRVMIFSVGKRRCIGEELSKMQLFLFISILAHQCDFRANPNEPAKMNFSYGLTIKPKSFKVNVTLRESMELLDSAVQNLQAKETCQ

Variants of: B1
Conditions: with cp1b1_human CYP1B1, Q16678
For I148T, the “effect of a mutation on the interaction” value was “decreasing interaction strength”.

Variants of: B1
Conditions: with cp1b1_human CYP1B1, Q16678
Remark: another data set of the same source
With I148T the “effect of a mutation on the interaction” value was “disrupting interaction strength”.

Variants of: B1
Conditions: with cp1b1_human CYP1B1, Q16678
Remark: another data set of the same source
With G743A the “effect of a mutation on the interaction” value was “with no effect”.

Variants of: B1
Conditions: with cp1b1_human CYP1B1, Q16678
Remark: another data set of the same source
For Q214P, the “effect of a mutation on the interaction” value was “disrupting interaction strength”.

Variants of: B1
Conditions: with cp1b1_human CYP1B1, Q16678
Remark: another data set of the same source
In the case of E103D, the “effect of a mutation on the interaction” value is reported as “disrupting interaction strength”.

— IntAct's records for PubMed 28620713
